Over roughly 110,000 compounds, “z-score” has its median near -0.1; the highest 2% begin near 2. The list shows a part of the results.

The target of this test is Metabotropic glutamate receptor 8 (Rattus norvegicus) (UniProt P70579). Put plainly: rat mGluR8 modulators via GIRK flux, primary screen, cell-based, thallium flux, HTS (AID 488969). The following applies: HEK293 rat mGluR8, GIRK (G protein-gated inwardly rectifying potassium channel) thallium flux, FluoZin2; at 10 µM; stronger effect = higher value; submaximal glutamate (EC20) added with thallium.
Chain of UniProt P70579 (P70579 whole entry, looked up): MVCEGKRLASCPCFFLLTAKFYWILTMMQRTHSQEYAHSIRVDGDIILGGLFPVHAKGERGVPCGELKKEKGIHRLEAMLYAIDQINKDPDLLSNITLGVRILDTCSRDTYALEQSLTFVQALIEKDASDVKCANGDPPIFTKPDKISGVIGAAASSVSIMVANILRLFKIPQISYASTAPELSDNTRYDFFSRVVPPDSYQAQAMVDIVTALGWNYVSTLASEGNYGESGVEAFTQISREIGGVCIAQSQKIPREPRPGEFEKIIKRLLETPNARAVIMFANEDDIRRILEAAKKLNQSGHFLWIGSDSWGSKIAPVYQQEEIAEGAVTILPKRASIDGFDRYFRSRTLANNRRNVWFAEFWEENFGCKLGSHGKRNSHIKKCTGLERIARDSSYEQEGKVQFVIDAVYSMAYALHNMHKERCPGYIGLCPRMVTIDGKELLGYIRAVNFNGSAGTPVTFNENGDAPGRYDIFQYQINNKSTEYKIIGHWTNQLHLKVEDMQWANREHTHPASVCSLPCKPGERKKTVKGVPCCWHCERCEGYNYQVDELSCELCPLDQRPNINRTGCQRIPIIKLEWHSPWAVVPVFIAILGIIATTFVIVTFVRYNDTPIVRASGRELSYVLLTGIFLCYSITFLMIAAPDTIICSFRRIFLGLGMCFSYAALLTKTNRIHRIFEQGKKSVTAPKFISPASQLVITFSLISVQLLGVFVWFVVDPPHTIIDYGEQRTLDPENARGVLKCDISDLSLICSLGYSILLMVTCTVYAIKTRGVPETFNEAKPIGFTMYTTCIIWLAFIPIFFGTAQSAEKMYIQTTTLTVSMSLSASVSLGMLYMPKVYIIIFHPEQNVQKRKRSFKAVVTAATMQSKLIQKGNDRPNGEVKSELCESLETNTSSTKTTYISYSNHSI
Compound `CCOc1ccc(N/N=C(/C#N)C(N)=O)cc1` registered a z-score of -0.0669.
In the case of `O=c1ccc2cc(S(=O)(=O)Nc3ccc(F)cc3)ccc2o1`, the z-score is -0.226.
Next, `CCOc1ccc(N(C(C)C(=O)NC2CCCCCC2)S(C)(=O)=O)cc1` (configuration not stated): 0.52.
`CCOc1cc(C2c3c(n[nH]c3C)C(=O)N2c2ccc(C)cc2)ccc1O` (configuration not stated) gave a z-score of -0.47.
The compound `Cn1nc(CC(=O)NCc2ccc(F)cc2)c2ccccc2c1=O` had a z-score of -0.367.
The compound `Cc1cc(C(=O)NCC(=O)OCC(=O)N(C)C2CCCCC2)ccc1[N+](=O)[O-]` came in with a z-score of 0.828.
On to `CS(=O)(=O)N(CC(=O)O)c1cc(Cl)cc(Cl)c1`, for which the z-score is -0.172.
`Cc1nc2sc(C)c(C)c2c(=O)[nH]1` gave a z-score of -1.16.
`CN(/N=C/c1cccnc1)C1=NS(=O)(=O)c2ccccc21` yielded a z-score of 0.273.
In turn, `CC(=O)NC(Cc1ccccc1C)C(=O)NC1CCN(c2ncccc2[N+](=O)[O-])CC1` (configuration not stated) gave a z-score of -0.207.
`Cc1cc(C)cc(NC(=S)NCc2cccnc2)c1` yielded a z-score of -0.22.
On to `CCOC(=O)N1CCN(Cc2ccccc2F)CC1`, for which the z-score came out at 0.00263.
Regarding `COc1cc(C=O)ccc1OCCSc1ccc(Cl)cc1`, the z-score was -0.34.
Next, `COC(=O)Cc1ccc2sc(-c3ccccc3)nc2c1`: -0.0354.
`O=C(CCNS(=O)(=O)c1ccccc1C(F)(F)F)NCc1ccc2c(c1)OCO2` had a z-score of 0.0644.
Then `O=C1c2cccc3c(N4CCCCC4)ccc(c23)C(=O)N1c1ccccn1`, with -1.8.
Next, `CCCN(CCO)Cc1cccc(Br)c1`: 0.000447; `CNC(=O)c1[nH]cnc1C(=O)Nc1ccccc1C`: 0.825; `O=C(CCCC(=O)N(CC(=O)NC1CCCC1)Cc1ccc(F)cc1)Nc1ccccn1`: -0.545.
Compound `Cc1cc(NS(=O)(=O)c2ccc(NC(=O)C(CC(C)C)N3C(=O)c4ccccc4C3=O)cc2)nc(C)n1` (configuration not stated) displayed a z-score of -0.338.
`O=C(OCC(=O)N1CCOCC1)c1ccc(Cl)nc1`: the z-score came out at 0.344.
With `Cc1ccc2nc(SCC(=O)NCc3ccco3)[nH]c2c1`, the z-score was -0.075.
For `CCCCOc1ccc(C(=O)Nc2ccc(N3CCN(C(C)=O)CC3)cc2)cc1`, the z-score was 1.89.
Turning to `Cc1cc(C)n2nc(SCc3cc(=O)oc4ccc5ccccc5c34)nc2n1`, the z-score is -0.493.
Regarding `COc1ccccc1Cc1noc(COc2cccc(C)c2C)n1`, the z-score stood at 0.212.
Then `Cc1ccc(-c2nnc(Oc3cccc(C)c3)c3ccccc23)cc1`, with -0.228.
Then `O=[N+]([O-])c1cc2c(cc1/C=N/Nc1nc(Nc3ccccc3)nc(N3CCCCC3)n1)OCO2`, with 0.0718.
With `CCOc1cccc2cc(C(=O)NCc3cccnc3)c(=O)oc12`, the z-score was -0.0081.
Regarding `O=C(Nc1ccc2c(c1)OCCO2)C1CCCN(S(=O)(=O)Cc2ccccc2)C1` (configuration not stated), the z-score came to 0.539.
Take `O=C1c2ccccc2C(=O)N1Cc1ccc2c(c1)OCO2`: the z-score is -0.227.
In the case of `CCNC(=O)/C(=C/c1ccc2c(c1)OCO2)NC(=O)c1ccc(Br)cc1`, the z-score was -0.0861.
`CC1CCCCN1C(=O)COC(=O)c1n[nH]c2ccccc12` (configuration not stated) returned a z-score of -0.423.
`CN(C)S(=O)(=O)N1CCN(C(=O)c2cccc(Br)c2)CC1`: the z-score was -0.312.
Next, `O=C(C(c1ccccc1)c1ccccc1)N1CCN(Cc2ccc(Br)cc2)CC1`: 0.0136.
On to `NS(=O)(=O)c1cccc(NC(=O)COC(=O)/C(=C/c2cccs2)c2cccs2)c1`, for which the z-score is -0.195.
`COc1ccccc1-c1nnc(SCC(=O)NCc2c(C)c(Cl)cc(C(C)C)c2O)o1` returned a z-score of -0.451.
Regarding `CCOc1ccc(NC(=O)COC(=O)c2c(OC)cccc2OC)cc1`, the z-score was -0.322.
`O=C1COc2ccc(-c3csc(=Nc4ccc(OC(F)F)cc4)n3CC3CCCO3)cc2N1` (configuration not stated) showed a z-score of -0.068.
Consider `Cc1cccn2c(N)c(-c3ccccc3)nc12`, for which the z-score amounted to 1.07.
`CC1CCN(S(=O)(=O)c2cccc(-c3csc(-c4cccnc4)n3)c2)CC1` showed a z-score of 0.341.
Compound `CCOc1ccc(CNC(=O)C(CC)n2nc(C)n3c(cc4occc43)c2=O)cc1OC` (configuration not stated) displayed a z-score of -1.26.
Then `O=[N+]([O-])c1ccc(N2CCC(=NOCc3ccc(Cl)cc3)CC2)cc1`, with -0.125; and `CCCc1nnc(NC(=O)CCC(=O)NC2CCCc3ccccc32)s1` (configuration not stated), with -0.05.
Take `O=C(NCCc1ccccc1)c1cc(-c2ccco2)on1`: the z-score stood at 0.278.
Compound `CN(C)S(=O)(=O)c1cccc(NC(=O)CSc2nc3c(cc2C#N)C(=O)CC(C)(C)C3)c1` returned a z-score of -1.13.
Turning to `O=C(/C(=C/c1ccccc1)n1cncn1)c1ccc(Cl)cc1Cl`, the z-score was -0.55.
Compound `CCCOc1ccc(C(=O)Nc2ccc(N3CCN(C(C)=O)CC3)cc2)cc1` returned a z-score of 9.14e-05.
The compound `CCN(CC)c1nc2ccccc2nc1C(C#N)C(=O)NCCc1ccccc1` (configuration not stated) registered a z-score of -0.622.
Consider `COC(=O)COc1ccc(C(=O)OC)cc1`, for which the z-score was -0.12.
Then `Fc1ccc(N2CCN(c3nc(-c4ccco4)cc(C(F)(F)F)n3)CC2)cc1`, with 0.981.
Then `O=C(CSc1nnc(-c2ccc(OC(F)F)cc2)o1)NCc1cccs1`, with -0.106.
`CC1CCCCN1S(=O)(=O)c1ccc(C(=O)Nc2sccc2C(N)=O)cc1` (configuration not stated) returned a z-score of 0.983.
Then `O=C(NC(=S)Nc1ccc(N2CCOCC2)cc1)c1ccc2c(c1)OCCO2`, with 0.0862; and `Cc1ccc(NC(=O)CCNS(=O)(=O)c2ccc3c(c2)oc(=O)n3C)c(C)c1`, with 0.0598; and `Cc1nn(CCC(N)=S)c2nc(-c3cccs3)cc(C(F)(F)F)c12`, with -0.0243.
Compound `OCCCCCNc1ncnc2ccccc12` had a z-score of 1.01.
On to `CCCCC(O)CN1CCC(c2ccccc2)CC1` (configuration not stated), for which the z-score turned out to be 0.558.
As for `CCOC(=O)c1c(C)[nH]c(NC(=O)Nc2c(C)n(C)n(-c3ccccc3)c2=O)c1C`, the z-score is -0.462.
In turn, `COc1ccccc1C/C(N)=N/OC(=O)COc1cccc2ccccc12` displayed a z-score of 0.0266.
As to `Cc1c(NC(=O)c2ccccc2NS(=O)(=O)c2ccc(Br)cc2)c(=O)n(-c2ccccc2)n1C`, the z-score is -0.446.
Next, `Clc1ccc(CNc2nc(CN3CCOCC3)nc3scc(-c4ccccc4)c23)cc1`: -0.101; `CCCC(=O)NC(=S)Nc1cccc(Cl)c1N1CCCCC1`: 0.12; `CCCCCCOc1ccc(N2C(=O)CC(NCCc3ccc(S(N)(=O)=O)cc3)C2=O)cc1` (configuration not stated): -0.234.
`CN(C)CCCNC(=O)COc1ccc(Br)cc1Cl` came in with a z-score of 0.032.
Next, `CC(C)C(=O)NC(NC(=S)NC1CCS(=O)(=O)C1)C(Cl)(Cl)Cl` (configuration not stated): -0.184.
With `CCc1sc(N(C(=O)Cc2ccccc2)c2cccc(F)c2)nc1-c1ccc(C)cc1`, the z-score was determined as 0.121.
`Cc1nn(-c2ccccc2)c(C)c1/C=C/C(=O)OCC(=O)Nc1ncc(C(F)(F)F)cc1Cl` returned a z-score of -0.39.
Then `CCOc1ccc(NC(=O)c2nn(C)cc2Br)cc1`, with -1.14; and `COCc1cc(C)c(C#N)c(=S)[nH]1`, with -0.0079; and `Cn1c(=O)c2c(nc(NCc3ccccc3)n2Cc2ccc(F)cc2)n(C)c1=O`, with -0.185.
In turn, `COc1cccc(C(=O)N(CN2CCCC2=O)c2cc(C)on2)c1` gave a z-score of -0.254.
Next, `O=S(=O)(NCC(Nc1ccc(Cl)cc1)c1ccccc1)c1ccc(Cl)cc1` (configuration not stated): -0.0372.
`O=C1c2cccnc2C(=O)N1C1CCCCC1` came in with a z-score of -0.115.
As for `COC(=O)c1ccccc1C(=O)N1CCOCCOCCOCC1`, the z-score was -0.0749.
As to `CC(c1nnc(SCC(=O)N2CC(=O)Nc3ccccc32)n1Cc1ccccc1)N(C)C` (configuration not stated), the z-score was -0.35.
Then `Cc1ccc(NC(=O)C2C(c3ccccc3)C=CC(c3ccccc3)C2C(=O)O)cc1` (configuration not stated), with -0.143; and `O=C(NC1CCCC1)C1=COCCO1`, with -0.000192; and `OCCNc1ccc(Cl)cc1`, with -0.583.
As for `COc1cc(/C=N/NC(=S)NCCN2CCOCC2)cc(OC)c1OC`, the z-score was -0.0565.
With `O=C(OCc1c(Cl)cccc1Cl)c1ccccn1`, the z-score is -0.233.
Turning to `O=[N+]([O-])c1ccc(-n2nncc2-c2ccc(Cl)cc2)cc1`, the z-score was -0.281.
In turn, `COc1ccc(CNC(=O)CCOc2ccc(C(C)(C)C)cc2)cc1` had a z-score of -0.421.
Then `COc1cccc(C2CC(c3cccs3)=NN2C(=S)Nc2ccccc2)c1OC` (configuration not stated), with -0.169.
Next, `Cc1ccc2c(c1C)OC(=O)CC2(C)C`: -0.276.
With `O=C(NCC1(c2ccccc2)CCCC1)C(=O)NCC1(c2ccccc2)CCCC1`, the z-score was found to be 0.528.
Next, `COc1ccc(/C=C/c2ccncc2)cc1OC`: 0.105; `Cn1c(C(=O)OCC(=O)NCCc2ccccc2)cc2sccc21`: -0.189; `Cc1cccc(C)c1N1CCN(c2nc(N(C)C)oc(=O)c2C#N)CC1`: -0.114.
In the case of `Clc1ccc(CSc2snnc2-c2ccccc2)c(Cl)c1`, the z-score is -0.113.
Compound `COCCNC(=O)CSc1nc(-c2ccccc2)cs1` displayed a z-score of 0.0459.
In the case of `CCc1ccc(NC(=O)CCNS(=O)(=O)c2cccc3nsnc23)cc1`, the z-score was determined as 0.211.
The compound `Cc1ccc(CSc2nn3c(=O)c(C)nnc3s2)cc1` showed a z-score of 1.08.
Compound `O=C(O)C1C2C=CC(C2)C1C(=O)NCc1cccnc1` (configuration not stated) registered a z-score of 0.0718.
Then `Cc1nc(SCC(=O)N2CCC(C(N)=O)CC2)n[nH]1`, with -0.029; and `Cc1nc(SCC(O)CO)c([N+](=O)[O-])[nH]1` (configuration not stated), with -0.286; and `COc1cccc(-c2nc(S(=O)(=O)c3ccccc3)c(N3CCOCC3)o2)c1`, with -0.303.
Then `Cc1ccc(C2CC(=O)C=C(Nc3ccc(Cl)cc3)C2)cc1` (configuration not stated), with -0.187.
`O=C(Cn1cc(C(=O)COc2ccccc2)c2ccccc21)NCc1ccco1` had a z-score of 0.275.
`S=C(Nc1cccnc1)NC1CCCCCCC1` showed a z-score of 1.18.
Take `Cc1ccccc1C(=O)NC(=S)NC1CCSC1=O` (configuration not stated): the z-score was -0.0558.
Next, `COc1ccc(/C=C/C(=O)NCCc2ccc(OC)c(OC)c2)cc1`: -0.158.
In the case of `O=C1c2ccccc2C(=O)N1CCCCN1CCN(CCCCN2C(=O)c3ccccc3C2=O)CC1`, the z-score was found to be 0.421.
`O=C(NCc1ccncc1)C(F)(F)C(F)(F)C(=O)NCc1ccncc1` registered a z-score of 0.181.
Consider `COc1ccc(-c2nn(-c3ccccc3)cc2/C=N/N=C(N)N)cc1OC`, for which the z-score came to 0.464.
Compound `CCOc1ccccc1C(=O)NC1CC2CCCC(C1)N2Cc1ccccc1` (configuration not stated) gave a z-score of 0.651.
`COc1ccc(C(=O)CSc2nnc(NC(=O)C3CC(=O)N(c4cccc(OC)c4)C3)s2)cc1` (configuration not stated) showed a z-score of -0.294.
Turning to `CC1(C)CC(=O)C2=C(C1)Nc1cc(C(=O)c3ccccc3)ccc1NC2c1ccccn1` (configuration not stated), the z-score is -0.364.
Compound `COC(=O)c1cccc(NC(=O)Cn2cnc3ccccc3c2=O)c1` showed a z-score of -1.57.
For the compound `Cc1ccc(C(=O)N/N=C\c2c(C)nn(-c3ccccc3)c2Cl)cn1`, the z-score is -0.275.
Take `CCN1CCN(C(=O)C2c3cc(OC)c(OC)cc3C(=O)N(C)C2c2ccc(SC)cc2)CC1` (configuration not stated): the z-score was determined as 0.574.
Then `CC(C)CC(=O)Nc1ccccc1N1CCCC1`, with -0.276; and `CC1=C(C(=O)Nc2cc(C)ccn2)C(c2ccc(C)cc2)C2=C(CCCC2=O)N1` (configuration not stated), with -0.368.

For the origin of these results see PubChem BioAssay AID488969 (Vanderbilt High Throughput Screening Facility, 2010).
